From PubChem BioAssay AID1768 (National Center for Advancing Translational Sciences (NCATS), 2009)
Several values for one entry are separate records, joined by “and”; a condition that tells them apart may be missing. Equal values may be shown once. Screen size: about 270,000 compounds; about 620 (0.23%) were called active. Inconclusive means that the source gave no clear call. Such entries were picked first, then a sample of the others. The call rests on the fitted dose curve; in most records, active means well fitted inhibition curve with a large enough effect in the polarisation, with a control signal flat (not every such curve was filed as active); inconclusive means small, poorly fitted or top-dose-only effect, or effect the other way, or a change in a side signal; inactive means no such curve, though single readings can be large or run the other way; the % refers to the polarisation. A potency beside an inconclusive call is a rough fit, not a confirmed value. “Side channel” marks fits to a control or component signal instead of the main read-out.
Potency means the concentration at half of the fitted maximal effect; tags describe the fitted curve by direction and shape or compound fluorescence and quenching.
Wherever FP activity change, negative = inhibition is given: % of control where 0% means no effect.

What follows are compounds tested against Menin (Homo sapiens) (UniProt O00255) (assay: qHTS Assay for Inhibitors Targeting the Menin-MLL Interaction in MLL Related Leukemias: Competition With Texas Red Labeled MLL-derived Mutant Peptide). Conditions: fluorescence polarization; FP activity change, negative = inhibition: at 61.6 µM (top of the series).
UniProt O00255, sequence (O00255 whole entry, looked up): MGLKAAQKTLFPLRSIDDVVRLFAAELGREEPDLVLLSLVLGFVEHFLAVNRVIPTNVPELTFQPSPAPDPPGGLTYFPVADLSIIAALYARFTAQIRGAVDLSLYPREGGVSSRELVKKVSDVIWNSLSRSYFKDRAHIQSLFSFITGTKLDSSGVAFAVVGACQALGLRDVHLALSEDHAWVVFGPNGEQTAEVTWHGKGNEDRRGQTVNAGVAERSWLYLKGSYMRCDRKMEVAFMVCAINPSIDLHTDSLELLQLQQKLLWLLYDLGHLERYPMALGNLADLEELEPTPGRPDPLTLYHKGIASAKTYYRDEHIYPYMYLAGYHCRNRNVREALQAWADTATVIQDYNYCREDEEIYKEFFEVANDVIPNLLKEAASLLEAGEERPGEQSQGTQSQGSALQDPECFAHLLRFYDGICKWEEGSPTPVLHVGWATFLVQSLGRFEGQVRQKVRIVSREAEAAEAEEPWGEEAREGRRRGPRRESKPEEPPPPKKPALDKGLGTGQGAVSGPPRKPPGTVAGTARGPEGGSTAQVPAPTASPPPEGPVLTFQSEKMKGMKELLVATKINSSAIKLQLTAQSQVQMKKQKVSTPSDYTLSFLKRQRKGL
For COC(=O)CN1C(=S)N(c2ccc(OC)cc2)C(=O)/C1=C/c1ccc(N2CCOCC2)cc1, the Potency was inconclusive: 22.4 µM [quencher, side channel, single point]. With COc1cc(NC(=O)Cc2ccccc2)ccc1NC(=O)c1ccccc1 the Potency was inconclusive: 39.8 µM [fluorescent, single point]. For C/C(=N\NC(=O)c1ccc(C)cc1C)c1ccc2c(c1)Nc1ccccc1S2, the Potency was inconclusive: 17.8 µM [quencher, partial curve]. For Cc1cc(C)c2oc(-c3cccc(N)c3)nc2c1, the “FP activity change, negative = inhibition” value was inactive: 15.5%. With Cc1[nH]c2ccccc2c1CN1CCC(Cc2ccccc2)CC1 the Potency was inconclusive: 12.6 µM [inhibitor, partial curve]. In the case of CCOc1cccc2sc(N(CCCN(C)C)C(=O)c3ccc(S(=O)(=O)N4CCCCCC4)cc3)nc12, the Potency is reported as inconclusive: 7.94 µM [fluorescent, side channel, full curve]. COc1ccc(NS(=O)(=O)c2cc3c(cc2C)NC(=O)CO3)c(OC)c1 was tested, and the “FP activity change, negative = inhibition” value was inactive: 12%. CCN1CCN(C2=C(Cl)C(=O)N(Cc3ccccc3)C2=O)CC1 was tested, and the “FP activity change, negative = inhibition” value was inactive: -4.49%. CC(=O)OC1CC[C@@]2(C)C(CC[C@@]3(C)C2CC=C2C4CC(C)(C)CC[C@]4(C)CC[C@@]23C)C1(C)C (stereo not given in full) was tested, and the Potency was inconclusive: 2.51 µM [fluorescent, side channel, partial curve, poor fit]. C[N+]1(CCCCCCC(=O)/C=N/O)CCCCCC1 was tested, and the “FP activity change, negative = inhibition” value was inactive: 6.87%. In the case of CCn1c(COc2ccc(C)cc2)nc2ccccc21, the Potency is reported as inconclusive: 5.01 µM [fluorescent, side channel, partial curve]. In the case of CCCC(=O)Nc1nnc(S(=O)(=O)N(CC(C)C)c2ccccc2)s1, the Potency is reported as inconclusive: 31.6 µM [fluorescent, side channel, single point]. Cn1cc(-c2nc3cnc(N4CCNCC4)nc3n(Cc3ccc(F)cc3)c2=O)c2ccccc21 was tested, and the “FP activity change, negative = inhibition” value was inactive: -3.24%. For COc1ccc(NS(=O)(=O)c2ccc(NS(=O)(=O)c3ccc(SC)cc3)cc2)c(OC)c1, the Potency was inconclusive: 25.1 µM [quencher, side channel, partial curve]. O=[N+]([O-])c1cccc(NC(=S)Nc2nc(-c3ccccc3Cl)cs2)c1 was tested, and the Potency was inconclusive: 11.2 µM [quencher, side channel, partial curve]. For COc1ccc(S(=O)(=O)Nc2nc3ccccc3nc2Nc2cccc(C(=O)O)c2)cc1, the Potency was inconclusive: 25.1 µM [quencher, side channel, partial curve]. In the case of COc1cccc(NC(=O)CSC2=C(C#N)C(c3ccco3)C3=C(CCCC3=O)N2)c1 (stereo not given), the Potency is reported as inconclusive: 35.5 µM [quencher, side channel, single point]. For CC(C)N1C(=O)CC(Nc2cccc3cccc(N)c23)C1=O (stereo not given), the Potency was inconclusive: 22.4 µM [quencher, side channel, partial curve]. In the case of COc1ccc(C2=CSC(/N=C/c3ccc(F)cc3)=NN2)cc1, the Potency is reported as inconclusive: 10 µM [quencher, side channel, partial curve]. In the case of CS(=O)(=O)NCCNc1ncc(C(F)(F)F)cc1Cl, the “FP activity change, negative = inhibition” value is reported as inactive: -0.464%. CCOC(=O)c1sc2c(c1C)c(=O)n(Cc1ccccc1)c(=O)n2CCN(C)C was tested, and the Potency was inconclusive: 12.6 µM [fluorescent, side channel, partial curve]. With O=C1NC(=O)/C(=C/c2ccc(-c3cccc([N+](=O)[O-])c3)o2)S1 the Potency was inconclusive: 20 µM [quencher, side channel, single point]. For COc1cc(/C=C/C(=O)OCC(=O)c2c[nH]c3ccccc23)ccc1OC(F)F, the Potency was inconclusive: 25.1 µM [quencher, side channel, partial curve]. In the case of O=C(/C=C/c1ccc(Cl)cc1)NCCSc1ccccc1, the Potency is reported as inconclusive: 25.1 µM [inhibitor, single point]. In the case of CCCCCCCCCCCCCCCCOCCOCCOCCOCCOCCOCCOCCOCCOCCOCCOCCOCCOCCOCCOCCOCCOCCOCCOCCOCCO, the Potency is reported as inconclusive: 3.16 µM [fluorescent, side channel, full curve]. With C#CCOCCOCCOCCNc1nc(N2CCN(C(=O)C([C@@H](C)CC)n3cc(C(N)Cc4ccc(O)cc4)nn3)CC2)nc(N2CCN(C(=O)[C@H](CCC(=O)O)n3cc(C(N)Cc4ccc(O)cc4)nn3)CC2)n1 (stereo not given in full) the Potency was inconclusive: 14.1 µM [fluorescent, side channel, partial curve]. For CCCCNC(=O)CSc1nc(COc2ccccc2)nc2ccccc12, the Potency was inconclusive: 10 µM [fluorescent, side channel, partial curve]. With CSc1ccccc1C(=O)C1CCCN(Cc2cnn(-c3ccccc3)c2)C1 (stereo not given) the Potency was inconclusive: 10 µM [fluorescent, side channel, partial curve]. O=C(COC(=O)c1cccnc1)c1ccc(Cl)cc1 was tested, and the Potency was inconclusive: 22.4 µM [quencher, side channel, partial curve]. For CCCOC(=O)/C(=C\C=C\c1ccco1)NC(=O)c1ccccc1, the Potency was inconclusive: 39.8 µM [quencher, side channel, single point]. For CCCCCCCCC[n+]1cccc2c3ccccc3ccc21, the “FP activity change, negative = inhibition” value was inactive: -25.3%. For CN(Cc1nc(-c2cnccn2)no1)CC1(c2ccccc2)CC1(C)C (stereo not given), the Potency was inconclusive: 11.2 µM [fluorescent, side channel, partial curve]. For Cn1c(N)c(C(=O)COC(=O)c2cc(-c3ccco3)nc3ccccc23)c(=O)n(C)c1=O, the Potency was inconclusive: 39.8 µM [quencher, side channel, single point] and inconclusive: 5.62 µM [quencher, side channel, partial curve]. c1coc(C2=Nc3cccc4cccc(c34)N2)c1 was tested, and the Potency was inconclusive: 11.2 µM [quencher, side channel, partial curve]. O=C(COc1ccc(F)cc1)N1CCC(Cc2ccccc2)CC1 was tested, and the Potency was inconclusive: 12.6 µM [fluorescent, side channel, partial curve]. For O=CNC1CCCc2c1[nH]c1ccc(Cl)cc21 (stereo not given), the Potency was inconclusive: 22.4 µM [quencher, side channel, single point]. With CCC(C)n1c(=O)c(C(=O)Nc2ccccc2S(N)(=O)=O)c(O)c2ccccc21 (stereo not given) the Potency was inconclusive: 39.8 µM [inhibitor, single point]. With O=C(/C=C/C(=O)N1CCc2ccccc2C1)N1CCc2ccccc2C1 the Potency was inconclusive: 14.1 µM [fluorescent, side channel, partial curve]. CCCCOc1ccc(C2C3CN(C(=O)OCC)CC=C3C(C#N)=C(N)C2(C#N)C#N)cc1OC (stereo not given) was tested, and the “FP activity change, negative = inhibition” value was inactive: 9.52%. With NNc1nc2cc3c(cc2s1)OCCO3 the Potency was inconclusive: 14.1 µM [quencher, side channel, partial curve]. In the case of O=[N+]([O-])c1cc(C=Nc2cccc3c(O)cccc23)ccc1Cl, the Potency is reported as inconclusive: 22.4 µM [quencher, side channel, partial curve]. CCN(CCNCC(O)COCc1ccc(Cl)cc1)c1cccc(C)c1 (stereo not given) was tested, and the Potency was inconclusive: 2 µM [fluorescent, side channel, full curve, poor fit]. Cc1cc(=O)oc2cc(OCC3CC(c4ccccc4)=NO3)ccc12 (stereo not given) was tested, and the “FP activity change, negative = inhibition” value was inactive: 3.86%. With Cc1ccc(Cn2c(=N)n(CC(O)COc3ccccc3)c3ccccc32)cc1 (stereo not given) the Potency was inconclusive: 1.26 µM [fluorescent, side channel, full curve]. For COc1cccc(-c2cc(C(=O)Nc3ccncc3)c3ccccc3n2)c1, the Potency was inconclusive: 14.1 µM [quencher, side channel, partial curve]. O=C(c1ccc(Cl)cc1)c1c[nH]c(C(=O)NNc2cccc(Cl)n2)c1 was tested, and the Potency was inconclusive: 25.1 µM [fluorescent, side channel, single point]. CN(C)c1ccccc1C(=O)N1CCCC(C(=O)c2ccc3ccccc3c2)C1 (stereo not given) was tested, and the Potency was inconclusive: 7.94 µM [fluorescent, side channel, full curve]. COc1ccc(NC(=O)c2cc(-c3ccccc3O)n[nH]2)cc1Cl was tested, and the Potency was inconclusive: 22.4 µM [fluorescent, side channel, single point]. With CCCNC(=S)N1CCN(c2nc(-c3ccc(C)cc3)cs2)CC1 the Potency was inconclusive: 17.8 µM [quencher, side channel, partial curve]. O=c1cc(CN2CCN(c3cccc(Cl)c3)CC2)c2cc(O)c(-c3ccccc3)cc2o1 was tested, and the Potency was inconclusive: 7.94 µM [quencher, side channel, full curve, poor fit]. COC(=O)c1sccc1NC(=O)CCC1CCCC1 was tested, and the Potency was inconclusive: 20 µM [fluorescent, side channel, single point]. COc1ccc(CSc2nnnn2-c2ccc(C(N)=O)cc2)cc1[N+](=O)[O-] was tested, and the Potency was inconclusive: 39.8 µM [inhibitor, single point]. For O=C(CN1C(=O)c2ccccc2S1(=O)=O)NC(Nc1ccccc1F)C(Cl)(Cl)Cl (stereo not given), the Potency was inconclusive: 7.94 µM [quencher, side channel, partial curve]. In the case of O=C(Nc1ccccc1-c1nc2ccccc2[nH]1)c1sc2ccccc2c1Cl, the Potency is reported as inconclusive: 2 µM [quencher, side channel, full curve, poor fit]. In the case of CCOC1=C/C(=C/c2c(N)n3nc(S(=O)(=O)CC)sc3nc2=O)C=CC1=O, the Potency is reported as inconclusive: 22.4 µM [quencher, side channel, single point].
